PubChem BioAssay AID360 (National Center for Advancing Translational Sciences (NCATS), 2006)
Out of some 48,000 compounds screened, about 550 (1.1%) were called active. Roughly 4% stayed inconclusive and do not appear here. Rule as the data show it: active = potency below about 15 µM; inconclusive = mostly about 16 µM to 33 µM; inactive = weaker than that. This is one part of the list.

The molecules below were run against Lysosomal acid glucosylceramidase (Homo sapiens) (UniProt P04062) (assay: Glucocerebrosidase). Details: purified enzyme, resorufin glucoside fluorescence (screen aimed at inhibitors), 20 min; series mostly up to 77 µM.
Procedure, shortened: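 Compounds titrated against 0.2 nM normal enzyme, 30 uM resorufin beta-D-glucopyranoside substrate, citrate/phosphate buffer with taurocholate and tween-20, pH 5.9. Reaction ran 20 min at room temperature; fluorescence (Ex 548/Em 600) gave AC50.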
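Also: the screen sought inhibitors.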
Potency is read from the fitted curve at half-maximal effect.

UniProt P04062, sequence (P04062 whole entry, looked up): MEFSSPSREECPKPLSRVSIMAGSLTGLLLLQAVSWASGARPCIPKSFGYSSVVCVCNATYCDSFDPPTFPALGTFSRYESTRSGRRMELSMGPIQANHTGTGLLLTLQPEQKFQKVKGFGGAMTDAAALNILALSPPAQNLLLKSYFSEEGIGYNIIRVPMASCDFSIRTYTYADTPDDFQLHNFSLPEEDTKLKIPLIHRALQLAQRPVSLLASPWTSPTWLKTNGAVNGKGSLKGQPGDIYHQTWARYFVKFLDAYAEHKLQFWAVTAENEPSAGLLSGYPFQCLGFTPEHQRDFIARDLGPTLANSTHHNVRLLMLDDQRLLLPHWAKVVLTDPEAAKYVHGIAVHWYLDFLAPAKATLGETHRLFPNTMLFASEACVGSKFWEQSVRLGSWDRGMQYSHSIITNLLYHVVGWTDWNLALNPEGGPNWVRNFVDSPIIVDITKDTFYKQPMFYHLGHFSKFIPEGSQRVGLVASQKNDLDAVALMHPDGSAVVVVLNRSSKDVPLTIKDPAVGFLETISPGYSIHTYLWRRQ

Potency, inactive:
CC1CCN(CCCNC(=O)C2CC(=O)N(C3CCCCCC3)C2)CC1 (configuration not stated) > 76.9 µM, COCCOCCn1c(CCCO)nc2ccccc21 > 76.9 µM, CC1CN(S(=O)(=O)c2ccc(Cl)c(C(F)(F)F)c2)CC(C)O1 (configuration not stated) > 76.9 µM, CC(=O)Nc1cc2c(cc1C(C)=O)OCCO2 > 76.9 µM, Cc1ccc(NC(=O)CCCC(=O)O)c(Br)c1 > 76.9 µM, COC(=O)c1ccccc1NC(=O)C1CC(=O)N(c2ccc(F)cc2)C1 (configuration not stated) > 76.9 µM, CCOC(=O)Cc1csc(NC(=O)c2cccs2)n1 > 76.9 µM, Cn1c(=O)c2[nH]c(CN(Cc3ccccc3)Cc3ccccc3)nc2n(C)c1=O > 76.9 µM, Cc1cc(N)c(NC2=CC(=O)CC(C)(C)C2)cc1C > 76.9 µM, Cc1cc(C)nc(SCC(=O)N2CCC(C(N)=O)CC2)n1 > 76.9 µM, CC1(C)CC(=O)C2=C(C1)NC(SCC(=O)Nc1ccccc1)=C(C#N)C2c1ccco1 (configuration not stated), COc1ccc(NC(=O)c2cccs2)cc1O > 76.9 µM, Cc1cc(-c2ccccc2)nc(N2CCC(C(=O)NC(C)C)CC2)n1 > 76.9 µM, COc1cc(NC(=O)CN2C(=O)NC(C)(CCC(C)C)C2=O)cc(OC)c1 (configuration not stated) > 76.9 µM, CCOc1ccc(-n2c(COc3ccc(C)cc3)nnc2SCC(N)=O)cc1 > 76.9 µM, COC(=O)[C@H](Cc1ccccc1)NC(=O)NCc1ccc(S(N)(=O)=O)cc1 > 76.9 µM, COc1ccc(OC)c(NC(=O)CN(c2ccc(C)cc2)S(=O)(=O)c2c(C)noc2C)c1 > 76.9 µM, c1ccc(-c2nn3c(-c4ccco4)nnc3s2)nc1 > 76.9 µM, CCCc1cc(C(=O)OC)c(NC(=O)OCC)s1 > 76.9 µM, O=C(Cc1cccs1)N(c1ccccc1)C1C=CS(=O)(=O)C1 (configuration not stated) > 76.9 µM, CC(=O)N(c1ccc(N(C(C)=O)S(=O)(=O)c2cccs2)cc1)S(=O)(=O)c1cccs1 > 76.9 µM, COCCn1nnnc1C(C(C)C)N1CCN(C(=O)c2ccco2)CC1 (configuration not stated) > 76.9 µM, CCC12CC3CC(C1)CC(C(=O)Nc1nn[nH]n1)(C3)C2 > 76.9 µM, C=CCn1c(Cc2nc3ccccc3[nH]2)n[nH]c1=S > 76.9 µM, CCCn1c(C)nc2c(c1=O)c1nc3ccccc3nc1n2CCC1=CCCCC1 > 76.9 µM, CCOC(=O)C1C2C=CC3(CN(c4ccccc4CC)C(=O)C13)O2 (configuration not stated) > 76.9 µM, CCOC(=O)CC(=O)CSc1nnc(Cn2c(=O)sc3ccccc32)n1C > 76.9 µM, COc1ccc(-n2cnnc2SC(C)c2nc3sc(C)c(C)c3c(=O)[nH]2)cc1 (configuration not stated) > 76.9 µM, Oc1ccccc1C1=Nc2ncnn2C(c2ccc(F)cc2)C1 (configuration not stated) > 76.9 µM, O=C(COc1ccc(Cl)cc1)NCc1nnc(SCC(=O)NC2CCCCC2)o1 > 76.9 µM, CC(C)OC(=O)c1ccc(N2C(=O)C3CC=CCC3C2=O)cc1 (configuration not stated) > 76.9 µM, CCC(c1nnnn1C(C)(C)CC)N(CCCO)Cc1cc2cccc(C)c2[nH]c1=O (configuration not stated) > 76.9 µM, Cc1cc(C)nc(/N=C/c2c(O)n(C)c(=O)n(C)c2=O)n1 > 76.9 µM, O=C1c2ccccc2C(=O)N1CC1=CCS(=O)(=O)C1 > 76.9 µM, CCN(Cc1ccccc1)C(c1cc2cc(C)cc(C)c2[nH]c1=O)c1nnnn1CCOC (configuration not stated) > 76.9 µM, CCOC(=O)CNC(=O)CSc1nc2ncc(Br)cc2[nH]1 > 76.9 µM, COc1cccc(CN2C(=O)C3(C(C#N)=C(N)OC4=C3C(=O)CCC4)c3ccccc32)c1 (configuration not stated) > 76.9 µM, CCC(C(=O)OCC(=O)Nc1c(C)n(C)n(-c2ccccc2)c1=O)c1ccccc1 (configuration not stated) > 76.9 µM, Cn1c(SCc2nc3ccccc3s2)nnc1-c1ccc2c(c1)OCO2 > 76.9 µM, CC(=O)N1CCc2cc(S(=O)(=O)NC(CC(C)C)C(=O)N3CCn4c3nc3ccccc34)ccc21 (configuration not stated) > 76.9 µM, CCOc1ccccc1NC(=O)CC1NCCNC1=O (configuration not stated) > 76.9 µM, OCCSc1c(F)c(SCCO)c(SCCO)c(F)c1SCCO > 76.9 µM, Cn1c(O)c(C=NC(CC(N)=O)C(=O)O)c(=O)n(C)c1=O (configuration not stated) > 76.9 µM, Cc1cc(NC(=O)CSc2ccc3nnc(-c4ccc(Cl)cc4)n3n2)no1 > 76.9 µM, Cc1ccc2c(c1)CCCN2C(=O)C1CCCO1 (configuration not stated) > 76.9 µM, COc1ccc(CCn2nnnc2C(C(C)C)N2CCC(C(N)=O)CC2)cc1OC (configuration not stated) > 76.9 µM, COC(=O)CCN(C(=O)c1ccc2c(c1)OCO2)c1ccccn1 > 76.9 µM, CCC(=O)Nc1nn(C)c2nc3c(C)cccc3cc12 > 76.9 µM, Cc1cccc(OCCn2c(NC(=O)c3ccco3)nc3ccccc32)c1 > 76.9 µM, O=C(CSc1ncn(-c2ccccc2)n1)Nc1nc2ccccc2s1 > 76.9 µM, CCOC(=O)c1cnc(SCC(=O)N2CCN(c3ccccc3)CC2)nc1N > 76.9 µM, S=c1[nH]nc(-c2ccco2)n1-c1cccc2ccccc12 > 76.9 µM, CSc1[nH]c(=O)c(C(=O)O)cc1C#N > 76.9 µM, O=C(Nc1ccc(Cl)cn1)c1cc2ccccc2o1, COc1ccccc1-n1c(SCC(=O)N(C)C2CCS(=O)(=O)C2)nc2ccccc2c1=O (configuration not stated) > 76.9 µM, Cc1cc(C)c2cc(CN(CC3CCCO3)S(=O)(=O)c3ccc4c(c3)OCCO4)c(=O)[nH]c2c1 (configuration not stated) > 76.9 µM, COc1ccc(-c2nnc(SCC(=O)NCc3ccco3)o2)cc1 > 76.9 µM
